In US9266939B2, “Compositions comprising natriuretic peptides and methods of use thereof” (Alexion Pharmaceuticals, Inc., priority 2010, dated 2016):

T1: NPR-B (Homo sapiens, UniProt P20594)
T1 sequence (P20594 23-1047): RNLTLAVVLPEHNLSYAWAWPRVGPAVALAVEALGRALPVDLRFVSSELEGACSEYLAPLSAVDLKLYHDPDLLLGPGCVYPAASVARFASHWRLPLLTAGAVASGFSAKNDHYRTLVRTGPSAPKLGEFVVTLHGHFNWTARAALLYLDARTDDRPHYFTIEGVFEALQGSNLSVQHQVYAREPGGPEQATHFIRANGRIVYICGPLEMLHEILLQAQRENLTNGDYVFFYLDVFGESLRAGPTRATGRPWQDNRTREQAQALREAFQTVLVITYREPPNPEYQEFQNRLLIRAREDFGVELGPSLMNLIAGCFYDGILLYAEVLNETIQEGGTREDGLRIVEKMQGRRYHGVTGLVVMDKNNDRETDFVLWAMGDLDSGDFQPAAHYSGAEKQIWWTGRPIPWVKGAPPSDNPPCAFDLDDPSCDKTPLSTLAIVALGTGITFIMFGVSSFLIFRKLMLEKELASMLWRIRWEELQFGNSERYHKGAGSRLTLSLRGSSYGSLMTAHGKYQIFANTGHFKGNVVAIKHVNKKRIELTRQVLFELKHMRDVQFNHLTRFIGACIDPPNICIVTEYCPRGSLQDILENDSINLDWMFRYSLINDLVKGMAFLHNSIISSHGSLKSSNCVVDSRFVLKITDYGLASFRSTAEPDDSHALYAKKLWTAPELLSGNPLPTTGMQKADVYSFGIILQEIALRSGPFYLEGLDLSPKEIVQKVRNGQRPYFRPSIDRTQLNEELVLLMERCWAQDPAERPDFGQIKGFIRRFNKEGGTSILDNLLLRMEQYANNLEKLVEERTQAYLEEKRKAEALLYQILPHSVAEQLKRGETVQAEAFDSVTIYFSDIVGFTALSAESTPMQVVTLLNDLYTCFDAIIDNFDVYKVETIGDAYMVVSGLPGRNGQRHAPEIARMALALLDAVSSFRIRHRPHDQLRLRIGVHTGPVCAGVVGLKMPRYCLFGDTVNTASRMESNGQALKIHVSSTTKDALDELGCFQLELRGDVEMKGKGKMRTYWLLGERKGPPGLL

B1: NC2-KGANKK: NC2st variant, Fc-CNP fusion with KGANKK; SEQ ID NO: 512 (protein)
chain: [not shown - human IgG1 Fc]GGGGSGGGGSKGANKKGLSKGCFGLKLDRIGSMSGLGC
modifications: Synthetic Construct (NC2-KGANKK (w/o sig. seq.))
B2: NC2-KGANQK: NC2st variant; SEQ ID NO: 514 (protein)
chain: [not shown - human IgG1 Fc]GGGGSGGGGSKGANQKGLSKGCFGLKLDRIGSMSGLGC
modifications: Synthetic Construct (NC2-KGANQK (w/o sig. seq.))
B3: D10-NC2: NC2 with D10 bone-targeting moiety; SEQ ID NO: 608 (protein)
chain: DDDDDDDDDD[not shown - human IgG1 Fc]GGGGSGGGGSGGGGSGGLSKGCFGLKLDRIGSMSGLGC
modifications: Synthetic Construct (D10-NC2 (w/o sig. seq.))

Assays:
[1] = target: neutral endopeptidase (NEP) (Homo sapiens, UniProt P08473)
UniProt P08473, sequence (P08473 whole entry): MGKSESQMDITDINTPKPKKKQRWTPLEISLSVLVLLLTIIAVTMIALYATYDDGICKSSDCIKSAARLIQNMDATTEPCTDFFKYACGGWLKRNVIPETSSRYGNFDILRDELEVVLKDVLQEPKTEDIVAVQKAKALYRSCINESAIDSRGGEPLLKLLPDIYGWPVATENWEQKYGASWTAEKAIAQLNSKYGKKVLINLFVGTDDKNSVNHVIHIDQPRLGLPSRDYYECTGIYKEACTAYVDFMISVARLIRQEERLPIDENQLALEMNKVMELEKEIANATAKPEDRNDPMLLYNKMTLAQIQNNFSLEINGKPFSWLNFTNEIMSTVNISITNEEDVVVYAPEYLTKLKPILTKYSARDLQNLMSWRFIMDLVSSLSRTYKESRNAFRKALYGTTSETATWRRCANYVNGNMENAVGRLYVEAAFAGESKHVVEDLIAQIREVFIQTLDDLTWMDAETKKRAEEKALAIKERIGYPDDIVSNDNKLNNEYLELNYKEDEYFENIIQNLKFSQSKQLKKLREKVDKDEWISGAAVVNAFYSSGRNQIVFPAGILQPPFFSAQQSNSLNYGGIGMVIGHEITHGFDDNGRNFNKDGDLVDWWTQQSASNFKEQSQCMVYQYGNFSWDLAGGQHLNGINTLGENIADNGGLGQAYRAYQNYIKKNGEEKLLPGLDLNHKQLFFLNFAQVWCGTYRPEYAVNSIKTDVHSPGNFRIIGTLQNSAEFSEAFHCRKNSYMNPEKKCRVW

NPR-B [2] = target: NPR-B (Homo sapiens, UniProt P20594); experiment: EC50 (nM)
Excerpt: Head of the field: EC50 (nM)
First copying reader's note: The table stands under a dose-response plot; according to the description the EC50 ratio and rescue ratio are relative to CNP22.

NPR-B [3] = target: T1, NPR-B; experiment: Whole cell guanylyl cyclase (cGMP) assay, NPR-B; assay type: cell-based; design: expressed in transfected cells; conditions: for % Efficiency / EC50 Ratio versus CNP22 / Rescue Ratio versus CNP22: NC2st variants; for % Efficiency / EC50 Ratio versus CNP22 / Rescue Ratio versus CNP22 / EC50: NPR-B whole cell cGMP assay; for Rescue range: concentration producing cGMP as 2.4 nM (lower) and 14 nM (high) CNP22, X: cannot be determined; for potency compared with NC2B: whole cell cGMP assay (FIGS. 37A, 37B); for EC50: NC2st variants without signal sequence
Procedure: HEK293S cells in a semi-confluent 75 cm2 flask are transfected with 30 μg of plasmid DNA coding for the appropriate receptor, e.g., human NPR-B or NPR-A, using Lipofectamine-2000CD. Alternatively, a stable polyclonal HEK293 S cell line expressing either human NPR-B or NPR-A was used. 24 hours after transfection, cells are trypsinized and plated into 48-well plates at 1×10^5 cells/well. Guanylyl cyclase assay is carried out 24 hours post-plating. Cells are first incubated for 30 minutes at 37° C. with serum-free DMEM medium. Then, they are incubated in triplicate with or without increasing concentrations of reference or test proteins in serum-free DMEM supplemented with 1 mM IBMX and 0.5% BSA, at 37° C. for 30 minutes to one hour. CNP serves as a suitable reference for NPR-B, while ANP is a suitable reference for NPR-A. Finally, cells are washed with ice-cold PBS and solubilized in lysis buffer from Catchpoint cGMP kit (Molecular devices). Concentrations of cGMP in lysate are determined using the Catchpoint cGMP kit. Dose-response curves are analysed with GraphPad Prism 5 software using non-linear regression with four-parameter logistic equation.

Molecule	reduction of ability to generate cGMP after incubation with purified NEP [1]	EC50 (NPR-B [2])	% Efficiency (NPR-B [3])	EC50 Ratio versus CNP22 (NPR-B [3])	Rescue Ratio versus CNP22 (NPR-B [3])	Rescue range (NPR-B [3])	potency compared with NC2B (NPR-B [3])	EC50 (NPR-B [3])
B1	comparable levels of cGMP	28.8 nM	115%	1.97	2.0 ± 0.8	4.8 to 29 nM	improved potency compared to NC2B; also recorded: the most potent of all the proteins provided in FIG. 37A	–
B2	–	100 nM	98%	11.4	13 ± 2.4	29 to 187 nM	improved potency compared to NC2B	167 nM
B3	–	–	80%	53.2	69 ± 23	157 to 1023 nM	–	782 nM

Entries after “also recorded” stand apart in the source; their conditions may differ.
